Laboratory results from the RNAGym collection of RNA variant scans (doi:10.7554/elife.90254).
Read counts are not given, so values of variants with three or more changes are uncertain.

B1: OR4K15 (parent)
chain: GUUAACGGUCAUAGGCCAUGGAAACUAGGAGCACCAUUUCGCUGCCAGUGAAGAAAUGAACAAAGAAAAUCUGGGCCAGGCAGGCAUCAAAAGAAAUAGUCUUGCGCUCAACCAGAAAGUCUGUAAUCAUUUUAAGGGUA

Variants of: B1
Assay: self-cleavage, relative activity (ratio to wild type); higher = more cleavage; in vitro, sequencing; the parent is a self-cleaving ribozyme

| Variant | self-cleavage |
| --- | --- |
| GCUAACGGUCAUAGGCCAAGGAGACUAGGAGCACCAUUUCGCUGCCAGUGAAGAAAUGAACAAAGAAAAUCUGGGCCAGGCAGGCACCAAAAGGAAUAGUCUUGCACUCAACCAGAAAGUCUGUAAUCAUUUUAAGGGUA | 0.05 |
| GCUAACGGUCAUAGGCCAAGGAAACUAGGAGCACCAUUUCGCUGCCAGUGAAGAAAUGAACAAAGAUAAUCUGGGCCAGGCAGGCAUCAAAAGAAAUAGCCUUGCGCUCAACCAGAAAGUCUGUAAUCAUUUUAAGGGUA | 1.23 |
| GCUAACGGCCAUAGGCCAUGGAAACUAGGAGCACCAUUUCGCUGCCAGUGAAGAAAUGUACAAAGAAAAUCUGGGCCAGGCAGGCAUCAAAAGAAAUAGUCUUGCGCUCAACCAGAAAGUCUGUAAUCAUUUUAAGGGUA | 1.6 |
| GCUAACGGUCAUAGGCCAUGGAAACCAGGAGCACCAUUUCGCUGCCAGUGAAGAAAUGAACAAAGAAAAUCUGGGCCGGGCAGGCAUCAAAAGAAAUAGUCUCGCGCUCAACCAGAAAGUCUGUAAUCAUUUUAUGGGUA | 0.55 |
| GCUAACGGCCAUAGGCCAUGGAAACUAGGAGCACCAUUUCGCUGCCAGUGAGGAAAUGAACAAAGAAAAUCUGGGCCAGGCAGGCAUCAAAAGAAAUUGUCUUGCGCUCAACCAGAAAGUCUGUAAUCAUUUUAAGGGUA | 0.89 |
| GCUAACGGCCAUAGGCCAUGGAAACUAGGAGCACCAUUUCGCUGCCAGUGAAGAAAUGAACAAAGAAAAUCUGGGCCAGGCAGGCAUCAAAAGAAAUAGUCUUGCGCUCAACCUGAAAGUCUGUAAUCAUUUUAAGGGUA | 0.03 |
| GCUAACGGUCAUAGGCCAUGGAAACCAGGAGCACCAUUUCGCUGCCAGUGAAGAAAUGAACAAAGAAAAUCUGGGCCAGGCAGGCAUCAGAAGAAAUAGUCUUGCGCUCAACCAGAAAGUCUGUAAUCAUUUUAAGGGUA | 1.28 |
| GCUAACGGUCAUAGGCCAUGGAAACUAGGAGCACCAAUUCGCUGCCAGUGAAGAAAUGAACAAAGAAAAUCUGGGCCGGGCAGGCAUCAAAAGAAAUAGUCUUGCGCUCAACAAGAAAGUCUGUAAUCAUUUUAAGGGUA | 0.02 |
| GCUAACGGUCAUAGGCCACGGAAACUAGGAGCACCAUUUCGCUGCCAGUGAAGAAAUGAGCAAAGAAAAUCUGGGCCAGGCAGGCAUCAAAAGAAAUAGUCUUGCGCUCAACCAGAAAGUCUGUAAUCAUUUUAAGGGUA | 0.9 |
| GCUAACGGUCAGAGGCCAUGGAAACUAGGAGCACCAUUUCGCCGCCAGUGAAGAAGUGAACAAAGAAAAUCUGGGCCAGGCAGGCAUCAAAAGAAAUAGUCUUGCGCUCAACCAGAAAGUCUGUAAUCAUUUUAAGGGUA | 0.44 |
| GCUAACGGUCAUAGGCCAUGGAAACUAGGAGCACCACUUCGCUGCCAGUGAAGAAAUGGACAAAGUAAAUCUGGGCCGGGCAGGCAUCAAAAGAAAUAGUCUUGCGCUCAACCAGAAAGCCUGUGAUCAUUUUAAGGGUA | 0.03 |
| GCUAACGGCCAUAGGCCAUGGAAACUAGGAGCACCAUUUCGCUGCCAGUGAAGAAAUGAGCAAAGAAAAUCUGGGCCAGGCAGGCAUCAAAAGGAAUAGUCUUGCGCUCAACCAGAAAGUCUGUAAUCAUUUUAAGGGUA | 1.17 |
| GCUAACGGUCACAGGCCAUGGAAACUAGGAGCACCAUUUCGCAGCCAGUGAAGAAAUGAACAAAGAAAAUCUGGGCCAGGCAGGCAUCUAAAGAAAUAGUGUUGCGCUCAACCAGAAAGUCUGUAAUCAUUUUAAGGGUA | 0.42 |
| GCUAACGGUCAUAGGCCAAGGAAACUAGGAGCACCAUUUCGCUGCCAGUGAUGAAAUGAACGAAGAAAAUCUGGGCCAGGCAGGCAUCAAAAGAAAUAGUCUUGCGCUCAACCAGAAAGUCUGUAAUCAUUGUAAGGGUA | 0.83 |
| GCUAACGGUCACAGGCCAUGGAAACUAGGAGCACCAUUUCGCUGCCAGUGAAGAAAUGAGCAAAGAAAAUCUGGGCCAGGCAGGCAUCAAAGGAAAUAGUCUUGCGCUCAACCAGAAAGCCUGUAACCAUUUUAAGGGUA | 0.43 |
| GCUAACGGUCAUAGGCCAUGGAAACAAGGAGCACCAUUUCGCUGCCAGUGAAGAAAUGAACAAAGAGAAUCUGGGCCAGGCAGGCAUCUAAAGAAAUAGUCUUGCGCUCAACCAGAAAGUCUGUAGUCAUUUUAAGGGUA | 0.76 |
| GCUAACGGUCAUAGGCCAUGGAAACUAGGAGCACCACUUCGCUGCCAGUGAAGAGAUGAACAAAGAAAAUCUGGGCCAGGCAGGCAUCAAAAGAAAUAGUCUUGCGCUCAACCAGAAAGUCUGUAAUCAUCUUAAGGGUA | 1.38 |
| GCUAACGGUCACAGGCCGUGGAAACUAGGAGCACCAUUUCGCUGCCAGUGAAGAAAUGAACAAAGAGAAUCUGGGCCAGGCAGGCAUCAAAAGAAAUAGUCUUGCGCUCAACCAGAAAGUCUGUAAUCAUUUUAAGGGUA | 0.75 |
| GCUAACGGUCAUAGGCCAUGGAAACUAGGAGCACCACUUCGCUGCCAGUGAAGAAAUGAACAAAGAAGAUCUGGGCCAGGCAGGCAUCAAAAGAAAUAGUCUUGCGCUCAACCAGAGAGUCUGUAAUCACUUUAAGUGUA | 1.33 |
| GCUAACGGUCAUAGGCCAGGGAAACUAGGAGCGCCAUUUCGCUGCCAGUGAAGAAAUGGACAAAGGAAAUCUGGGCCAGGCAGGCAUCAAAAGAAAUAGUCUUGCGCUCAACCAGAAAGUCUGUAAUCAUUUUAAGGGUA | 0.3 |
| GCUAACGGUCACAGGCCAUGGAAACUAGGAGCACCAUUUCGCUGCCAGUGUAGAAAUGAACAAAGAAAAUCUGGGCCAGGCAGGCGUCAAAAGAAAUAGUCUUGCGCUCAACCAGAAAGUCUGUAAUCAUUUUAAGGGUA | 1.62 |
